# Laboratory results: the supplement of paper PMC8728848
# The list shows a part of the results.
# B1: PNA (Arachis hypogaea), P02872 (protein)
# chain: MKPFCVFLTFFLLLAASSKKVDSAETVSFNFNSFSEGNPAINFQGDVTVLSNGNIQLTNLNKVNSVGRVLYAMPVRIWSSATGNVASFLTSFSFEMKDIKDYDPADGIIFFIAPEDTQIPAGSIGGGTLGVSDTKGAGHFVGVEFDTYSNSEYNDPPTDHVGIDVNSVDSVKTVPWNSVSGAVVKVTVIYDSSTKTLSVAVTNDNGDITTIAQVVDLKAKLPERVKFGFSASGSLGGRQIHLIRSWSFTSTLITTTRRSIDNNEKKIMNMASA
# What was measured:
# Experiment in all cases: glycan array binding signal (z-score within array); higher = stronger binding
# Conditions in all cases: glycan notation: IUPAC condensed, linker removed
# [1] = target: Gal(b1-4)GlcNAc(b1-3)Gal(b1-4)GlcNAc(b1-2)Man(a1-3)[Gal(b1-4)GlcNAc(b1-3)Gal(b1-4)GlcNAc(b1-2)Man(a1-6)]Man(b1-4)GlcNAc(b1-4)[Fuc(a1-6)]GlcNAc
# Summary of the method: (§1)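 Arrays were curated from the Consortium for Functional Glycomics database, 3228 in total, and kept only where the protein sequence was available. Binding is expressed as a within-array Z-score. This score was averaged across arrays of the same protein sequence at different concentrations or buffers and across linkers, and negative values can be read as non-binding.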
# [2] = target: Gal(b1-4)GlcNAc(b1-3)Gal(b1-4)GlcNAc(b1-2)[Gal(b1-4)GlcNAc(b1-3)Gal(b1-4)GlcNAc(b1-6)]Man(a1-6)[Gal(b1-4)GlcNAc(b1-3)Gal(b1-4)GlcNAc(b1-2)Man(a1-3)]Man(b1-4)GlcNAc(b1-4)GlcNAc
# Summary of the method: as §1
# [3] = target: Gal(b1-4)GlcNAc(b1-3)Gal(b1-4)GlcNAc(b1-2)[Gal(b1-4)GlcNAc(b1-3)Gal(b1-4)GlcNAc(b1-6)]Man(a1-6)[Gal(b1-4)GlcNAc(b1-3)Gal(b1-4)GlcNAc(b1-2)Man(a1-3)]Man(b1-4)GlcNAc(b1-4)[Fuc(a1-6)]GlcNAc
# Summary of the method: as §1
# [4] = target: Gal(b1-4)GlcNAc(b1-3)Gal(b1-4)GlcNAc(b1-3)Gal(b1-4)Glc
# Summary of the method: as §1
# [5] = target: Gal(b1-4)GlcNAc(b1-3)Gal(b1-4)GlcNAc(b1-3)Gal(b1-4)GlcNAc
# Summary of the method: as §1
# [6] = target: Gal(b1-4)GlcNAc(b1-3)Gal(b1-4)GlcNAc(b1-3)Gal(b1-4)GlcNAc(b1-2)Man(a1-3)[Gal(b1-4)GlcNAc(b1-3)Gal(b1-4)GlcNAc(b1-3)Gal(b1-4)GlcNAc(b1-2)Man(a1-6)]Man(b1-4)GlcNAc(b1-4)GlcNAc
# Summary of the method: as §1
# [7] = target: Gal(b1-4)GlcNAc(b1-3)Gal(b1-4)GlcNAc(b1-3)Gal(b1-4)GlcNAc(b1-2)Man(a1-3)[Gal(b1-4)GlcNAc(b1-3)Gal(b1-4)GlcNAc(b1-3)Gal(b1-4)GlcNAc(b1-2)Man(a1-6)]Man(b1-4)GlcNAc(b1-4)[Fuc(a1-6)]GlcNAc
# Summary of the method: as §1
# [8] = target: Gal(b1-4)GlcNAc(b1-3)Gal(b1-4)GlcNAc(b1-3)Gal(b1-4)GlcNAc(b1-2)[Gal(b1-4)GlcNAc(b1-3)Gal(b1-4)GlcNAc(b1-3)Gal(b1-4)GlcNAc(b1-6)]Man(a1-6)[Gal(b1-4)GlcNAc(b1-3)Gal(b1-4)GlcNAc(b1-3)Gal(b1-4)GlcNAc(b1-2)Man(a1-3)]Man(b1-4)GlcNAc(b1-4)[Fuc(a1-6)]GlcNAc
# Summary of the method: as §1
# [9] = target: Gal(b1-4)GlcNAc(b1-3)Gal(b1-4)GlcNAc(b1-3)Gal(b1-4)GlcNAc(b1-3)Gal(b1-4)GlcNAc(b1-2)Man(a1-3)[Gal(b1-4)GlcNAc(b1-3)Gal(b1-4)GlcNAc(b1-3)Gal(b1-4)GlcNAc(b1-3)Gal(b1-4)GlcNAc(b1-2)Man(a1-6)]Man(b1-4)GlcNAc(b1-4)GlcNAc
# Summary of the method: as §1
# [10] = target: Gal(b1-4)GlcNAc(b1-3)Gal(b1-4)GlcNAc(b1-3)Gal(b1-4)GlcNAc(b1-3)Gal(b1-4)GlcNAc(b1-2)Man(a1-3)[Gal(b1-4)GlcNAc(b1-3)Gal(b1-4)GlcNAc(b1-3)Gal(b1-4)GlcNAc(b1-3)Gal(b1-4)GlcNAc(b1-2)Man(a1-6)]Man(b1-4)GlcNAc(b1-4)[Fuc(a1-6)]GlcNAc
# Summary of the method: as §1
# [11] = target: Gal(b1-4)GlcNAc(b1-3)Gal(b1-4)GlcNAc(b1-3)Gal(b1-4)GlcNAc(b1-3)Gal(b1-4)GlcNAc(b1-2)[Gal(b1-4)GlcNAc(b1-3)Gal(b1-4)GlcNAc(b1-3)Gal(b1-4)GlcNAc(b1-3)Gal(b1-4)GlcNAc(b1-6)]Man(a1-6)[Gal(b1-4)GlcNAc(b1-3)Gal(b1-4)GlcNAc(b1-3)Gal(b1-4)GlcNAc(b1-3)Gal(b1-4)GlcNAc(b1-2)Man(a1-3)]Man(b1-4)GlcNAc(b1-4)[Fuc(a1-6)]GlcNAc
# Summary of the method: as §1
# [12] = target: Gal(b1-4)GlcNAc(b1-3)Gal(b1-4)GlcNAc(b1-3)Gal(b1-4)GlcNAc(b1-3)Gal(b1-4)GlcNAc(b1-3)Gal(b1-4)GlcNAc(b1-2)Man(a1-3)[Gal(b1-4)GlcNAc(b1-3)Gal(b1-4)GlcNAc(b1-3)Gal(b1-4)GlcNAc(b1-3)Gal(b1-4)GlcNAc(b1-3)Gal(b1-4)GlcNAc(b1-2)Man(a1-6)]Man(b1-4)GlcNAc(b1-4)GlcNAc
# Summary of the method: as §1
# [13] = target: Gal(b1-4)GlcNAc(b1-3)Gal(b1-4)GlcNAc(b1-3)Gal(b1-4)GlcNAc(b1-3)Gal(b1-4)GlcNAc(b1-3)Gal(b1-4)GlcNAc(b1-2)Man(a1-3)[Gal(b1-4)GlcNAc(b1-3)Gal(b1-4)GlcNAc(b1-3)Gal(b1-4)GlcNAc(b1-3)Gal(b1-4)GlcNAc(b1-3)Gal(b1-4)GlcNAc(b1-2)Man(a1-6)]Man(b1-4)GlcNAc(b1-4)[Fuc(a1-6)]GlcNAc
# Summary of the method: as §1
# [14] = target: Gal(b1-4)GlcNAc(b1-3)Gal(b1-4)GlcNAc(b1-3)Gal(b1-4)GlcNAc(b1-3)Gal(b1-4)GlcNAc(b1-3)Gal(b1-4)GlcNAc(b1-2)[Gal(b1-4)GlcNAc(b1-3)Gal(b1-4)GlcNAc(b1-3)Gal(b1-4)GlcNAc(b1-3)Gal(b1-4)GlcNAc(b1-3)Gal(b1-4)GlcNAc(b1-6)]Man(a1-6)[Gal(b1-4)GlcNAc(b1-3)Gal(b1-4)GlcNAc(b1-3)Gal(b1-4)GlcNAc(b1-3)Gal(b1-4)GlcNAc(b1-3)Gal(b1-4)GlcNAc(b1-2)Man(a1-3)]Man(b1-4)GlcNAc(b1-4)[Fuc(a1-6)]GlcNAc
# Summary of the method: as §1
# [15] = target: Gal(b1-4)GlcNAc(b1-3)Gal(b1-4)GlcNAc(b1-3)Gal(b1-4)GlcNAc(b1-3)Gal(b1-4)GlcNAc(b1-3)Gal(b1-4)GlcNAc(b1-3)Gal(b1-4)GlcNAc(b1-2)Man(a1-3)[Gal(b1-4)GlcNAc(b1-3)Gal(b1-4)GlcNAc(b1-3)Gal(b1-4)GlcNAc(b1-3)Gal(b1-4)GlcNAc(b1-3)Gal(b1-4)GlcNAc(b1-3)Gal(b1-4)GlcNAc(b1-2)Man(a1-6)]Man(b1-4)GlcNAc(b1-4)GlcNAc
# Summary of the method: as §1
# [16] = target: Gal(b1-4)GlcNAc(b1-3)Gal(b1-4)GlcNAc(b1-3)GalNAc
# Summary of the method: as §1
# [17] = target: Gal(b1-4)GlcNAc(b1-3)Gal(b1-4)GlcNAc(b1-3)[Gal(b1-4)GlcNAc(b1-3)Gal(b1-4)GlcNAc(b1-6)]GalNAc
# Summary of the method: as §1
# [18] = target: Gal(b1-4)GlcNAc(b1-3)Gal(b1-4)GlcNAc(b1-6)[Gal(b1-3)]GalNAc
# Summary of the method: as §1
# [19] = target: Gal(b1-4)GlcNAc(b1-3)Gal(b1-4)[Fuc(a1-3)GlcNAc(b1-6)]Gal(b1-4)Glc
# Summary of the method: as §1
# [20] = target: Gal(b1-4)GlcNAc(b1-3)Gal(b1-4)[Fuc(a1-3)]GlcNAc(b1-3)Gal(b1-4)[Fuc(a1-3)]GlcNAc
# Summary of the method: as §1
# [21] = target: Gal(b1-4)GlcNAc(b1-3)GalNAc
# Summary of the method: as §1
# [22] = target: Gal(b1-4)GlcNAc(b1-3)[Fuc(a1-3)GlcNAc(b1-6)]Gal(b1-4)Glc
# Summary of the method: as §1
# [23] = target: Gal(b1-4)GlcNAc(b1-3)[Fuc(a1-3)[Gal(b1-4)]GlcNAc(b1-6)]Gal(b1-4)Glc
# Summary of the method: as §1
# [24] = target: Gal(b1-4)GlcNAc(b1-3)[Gal(b1-4)GlcNAc(b1-6)]Gal(b1-4)Glc
# Summary of the method: as §1
# [25] = target: Gal(b1-4)GlcNAc(b1-3)[Gal(b1-4)GlcNAc(b1-6)]Gal(b1-4)GlcNAc
# Summary of the method: as §1
# [26] = target: Gal(b1-4)GlcNAc(b1-3)[Gal(b1-4)GlcNAc(b1-6)]Gal(b1-4)GlcNAc(b1-3)Gal(b1-4)Glc
# Summary of the method: as §1
# [27] = target: Gal(b1-4)GlcNAc(b1-3)[Gal(b1-4)GlcNAc(b1-6)]Gal(b1-4)GlcNAc(b1-3)[Gal(b1-4)GlcNAc(b1-6)]Gal(b1-4)GlcNAc(b1-3)Gal(b1-4)Glc
# Summary of the method: as §1
# [28] = target: Gal(b1-4)GlcNAc(b1-3)[Gal(b1-4)GlcNAc(b1-6)]Gal(b1-4)GlcNAc(b1-3)[Gal(b1-4)GlcNAc(b1-6)]Gal(b1-4)GlcNAc(b1-3)[Gal(b1-4)GlcNAc(b1-6)]Gal(b1-4)GlcNAc(b1-3)Gal(b1-4)Glc
# Summary of the method: as §1
# [29] = target: Gal(b1-4)GlcNAc(b1-3)[Gal(b1-4)GlcNAc(b1-6)]Gal(b1-4)GlcNAc(b1-3)[Gal(b1-4)GlcNAc(b1-6)]Gal(b1-4)GlcNAc(b1-3)[Gal(b1-4)GlcNAc(b1-6)]Gal(b1-4)GlcNAc(b1-3)[Gal(b1-4)GlcNAc(b1-6)]Gal(b1-4)GlcNAc(b1-3)Gal(b1-4)Glc
# Summary of the method: as §1
# [30] = target: Gal(b1-4)GlcNAc(b1-3)[Gal(b1-4)GlcNAc(b1-6)]GalNAc
# Summary of the method: as §1
# [31] = target: Gal(b1-4)GlcNAc(b1-3)[GlcNAc(b1-6)]Gal(b1-4)GlcNAc
# Summary of the method: as §1
# [32] = target: Gal(b1-4)GlcNAc(b1-6)Gal(b1-4)GlcNAc
# Summary of the method: as §1
# [33] = target: Gal(b1-4)GlcNAc(b1-6)Gal(b1-4)GlcNAc(b1-6)GalNAc
# Summary of the method: as §1
# [34] = target: Gal(b1-4)GlcNAc(b1-6)GalNAc
# Summary of the method: as §1
# [35] = target: Gal(b1-4)GlcNAc(b1-6)[Gal(b1-3)]GalNAc
# Summary of the method: as §1
# [36] = target: Gal(b1-4)GlcNAc(b1-6)[Gal(b1-4)GlcNAc(b1-3)]GalNAc
# Summary of the method: as §1
# [37] = target: Gal(b1-4)GlcNAc6P
# Summary of the method: as §1
binder,measurement,setting,value
B1,glycan array binding signal (z-score),[1],-0.183
same,glycan array binding signal (z-score),[2],-0.2
same,glycan array binding signal (z-score),[3],-0.186
same,glycan array binding signal (z-score),[4],-0.195
same,glycan array binding signal (z-score),[5],-0.157
same,glycan array binding signal (z-score),[6],0.549
same,glycan array binding signal (z-score),[7],-0.247
same,glycan array binding signal (z-score),[8],-0.179
same,glycan array binding signal (z-score),[9],-0.229
same,glycan array binding signal (z-score),[10],-0.168
same,glycan array binding signal (z-score),[11],-0.225
same,glycan array binding signal (z-score),[12],-0.247
same,glycan array binding signal (z-score),[13],-0.218
same,glycan array binding signal (z-score),[14],-0.203
same,glycan array binding signal (z-score),[15],-0.332
same,glycan array binding signal (z-score),[16],0.16
same,glycan array binding signal (z-score),[17],0.479
same,glycan array binding signal (z-score),[18],1.59
same,glycan array binding signal (z-score),[19],-0.095
same,glycan array binding signal (z-score),[20],-0.115
same,glycan array binding signal (z-score),[21],-0.097
same,glycan array binding signal (z-score),[22],-0.247
same,glycan array binding signal (z-score),[23],-0.073
same,glycan array binding signal (z-score),[24],0.007
same,glycan array binding signal (z-score),[25],-0.153
same,glycan array binding signal (z-score),[26],-0.162
same,glycan array binding signal (z-score),[27],1.2
same,glycan array binding signal (z-score),[28],1.14
same,glycan array binding signal (z-score),[29],4.16
same,glycan array binding signal (z-score),[30],-0.215
same,glycan array binding signal (z-score),[31],-0.151
same,glycan array binding signal (z-score),[32],-0.129
same,glycan array binding signal (z-score),[33],-0.193
same,glycan array binding signal (z-score),[34],-0.137
same,glycan array binding signal (z-score),[35],5.42
same,glycan array binding signal (z-score),[36],-0.112
same,glycan array binding signal (z-score),[37],-0.238
